Laboratory results from patent US20220267438A1 (Janssen / Centocor, published 2022).

T1: human BCMA (B cell maturation antigen, TNFRSF17) on cells (human, UniProt Q02223 1-184)
T1 construct: whole, on cells; Target on H929 or MM.1R GPRC5D knockout cells, K562 cells expressing human BCMA, HEK293 cells of the cell microarray, and BCMA-only lymphoma lines; also called CD269; surface BCMA
T1 sequence (looked up): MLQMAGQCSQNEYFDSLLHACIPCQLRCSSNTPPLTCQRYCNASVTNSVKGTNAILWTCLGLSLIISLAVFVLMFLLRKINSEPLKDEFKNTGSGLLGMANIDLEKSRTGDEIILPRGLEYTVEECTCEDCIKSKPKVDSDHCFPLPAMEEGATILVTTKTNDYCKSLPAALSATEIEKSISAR

T2: BCMW37 (recombinant human BCMA antigen) (human, UniProt Q02223 1-54, limits assumed)
T2 construct: also called BCMA BCMW37 chain; human BCMA (SPR antigen)
T2 sequence (looked up): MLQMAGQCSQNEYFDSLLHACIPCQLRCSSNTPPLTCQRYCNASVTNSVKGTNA

T3: bt-BCMA (biotinylated BCMA, Octet) (UniProt Q02223 1-54, limits assumed, biotinylated (site not given))
T3 construct: Also used for the row 'BCMA' of the Octet serum interference test of BGCB463, where the reagent is not described; also called BCMA (Octet serum interference)
T3 sequence (looked up): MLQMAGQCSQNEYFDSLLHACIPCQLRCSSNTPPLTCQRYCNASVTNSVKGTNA


What was measured:
[1] = biological target: T1, human BCMA (B cell maturation antigen, …); test: flow cytometry, H929-GPRC5D-KO cells (BCMA arm), 1 h 37C; median
Description: Flow cytometry was used to evaluate the BCMA and GPRC5D arm binding of BGCB491 in vitro. BGCB491 and isotype control were tested on a panel of H929-WT, H929-BCMA-KO, H929-GPRC5D-KO, and H929-BCMA/GPRC5D-KO cell lines after 1-hour 37° C. incubation.

[2] = biological target: T4, CD3W200, recombinant CD3εγ heterodimer construct (human, UniProt P07766 22-118; P09693 23-103); test: SPR, CD3 binding after pH 5.0 stress
T4 construct: also called human CD3 (SPR antigen for BGCB491)

[3] = biological target: T2, BCMW37 (recombinant human BCMA antigen); test: SPR, BCMA binding after pH 8.5 stress
[4] = biological target: T1, human BCMA (B cell maturation antigen, …); test: flow cytometry, MM.1R GPRC5D KO cells, 1 h 37C; Run 4
[5] = biological target: T3, bt-BCMA (biotinylated BCMA, Octet); test: Octet, association rate in buffer against 50% human serum
[6] = biological target: T5, human CD3 (CD3ε of the TCR/CD3 complex) on primary human pan T cells (human, UniProt P07766); test: flow cytometry, human pan T cells, Donor 1, 1 h 37C; Run 1
T5 construct: whole, on cells; On T cells CD3ε stands in the whole TCR/CD3 complex
Description: (§1) For binding of BGCB463 to human and cynomolgus Pan T cells, three human donors (Hemacare) were selected, quickly thawed, resuspended, and aliquoted into a 96-well plate at 1×10⁶ cells/mL. Cells were then washed, Fc blocked if necessary (Innovex), and stained with viability dye (Invitrogen). BGCB463 and its corresponding isotype (B23B251) were diluted in complete media to an initial concentration of 2 μM and 1:3 serial dilutions in duplicate were performed for a dose-response curve. The cells were incubated with molecules at 4° C. or 37° C. for 1 hour. When necessary, incubation with 90% human serum (Sigma) was also performed as described above.
(§2) First, FACS-based binding for GPRC5D and BCMA binding arms of the trispecific molecule was determined by measuring the effective concentration (EC) range from a dose-response curve using a 4-parameter fit at 37° C. for 1 hr. This was assessed using an H929 suite of cells (WT, GPRC5D-KO, BCMA-KO, and GPRC5D/BCMA KO), and a similar MM.1R suite. Cell based EC₅₀ is approximately 13 nM for WT H929 (FIGS. 2A-2D, Table 7) and 2.4 nM for WT MM.1R (FIGS. 3A-3D, Table 8). […] Next, cell-based EC₅₀ was determined for the CD3-binding Fab arm using purified Pan T cells from three random donors. […] Next, dose responsive binding was assessed at 4° C. to remove any potential biological effects. […]

[7] = biological target: T6, human GPRC5D (G-protein coupled receptor family C group 5 member D) on cells (human, UniProt Q9NZD1 1-345); test: flow cytometry, H929 BCMA KO cells, 1 h 37C; average of runs
T6 construct: Target on H929 or MM.1R BCMA knockout cells, K562 cells expressing human GPRC5D and HEK293 cells of the cell microarray
T6 sequence (Q9NZD1 whole entry): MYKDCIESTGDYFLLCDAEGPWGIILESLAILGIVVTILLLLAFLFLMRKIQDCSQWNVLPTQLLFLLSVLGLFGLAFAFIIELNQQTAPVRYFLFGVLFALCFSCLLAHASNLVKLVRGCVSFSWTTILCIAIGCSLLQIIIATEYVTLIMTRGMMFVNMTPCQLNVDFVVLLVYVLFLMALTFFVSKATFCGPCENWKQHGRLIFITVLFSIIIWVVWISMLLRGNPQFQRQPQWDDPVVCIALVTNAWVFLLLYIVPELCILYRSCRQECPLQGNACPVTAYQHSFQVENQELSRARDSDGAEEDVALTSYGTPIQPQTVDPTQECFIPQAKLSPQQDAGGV
Description: First, FACS-based binding for GPRC5D and BCMA binding arms of the trispecific molecule was determined by measuring the effective concentration (EC) range from a dose-response curve using a 4-parameter fit at 37° C. for 1 hr. This was assessed using an H929 suite of cells (WT, GPRC5D-KO, BCMA-KO, and GPRC5D/BCMA KO), and a similar MM.1R suite. Cell based EC₅₀ is approximately 13 nM for WT H929 (FIGS. 2A-2D, Table 7) and 2.4 nM for WT MM.1R (FIGS. 3A-3D, Table 8). A clear avidity affect is observed as EC₅₀ and Bmax are both reduced in GPRC5D-KO and BCMA-KO lines which test monovalent binding of target binding arms (Table 7). Next, cell-based EC₅₀ was determined for the CD3-binding Fab arm using purified Pan T cells from three random donors. […] Next, dose responsive binding was assessed at 4° C. to remove any potential biological effects. As shown in FIGS. 5A-5C, binding is stronger (50-100 nM) at 4° C., compared to 37° C., which may indicate internalization. Additionally, two expression lots of BGCB463 (BGCB463.003 from transient transfection and BGCB463.004 from a stable transfection pool), were directly compared with binding to H929, MM.1R, and Pan T cells and no differences were noted (FIGS. 6A-6C).

[8] = biological target: T6, human GPRC5D (G-protein coupled …); test: flow cytometry, MM.1R BCMA KO cells, 1 h 37C; Run 4
[9] = biological target: T7, cynomolgus GPRC5D on K562 cells (cynomolgus monkey); test: flow cytometry, K562 cells expressing cynomolgus GPRC5D, 1 h 37C
T7 construct: whole, on cells; also called cyno GPRC5D
Description: FIGS. 9A-E. BGCB463 (circles) or negative control B23B251 (triangles) were all incubated with K562 cells expressing human GPRC5D (FIG. 9A), human BCMA (FIG. 9B), cynomolgus GPRC5D (FIG. 9C) or cynomolgus BCMA (FIG. 9D) for 1 hr at 37° C. at a starting concentration of 2 μM. After secondary detection with AF647-anti-human IgG, the MFI signal was analyzed to generate an EC₅₀ and EC₉₀ (FIG. 9E). Data are representative of two independent experiments.
The GPRC5D (i.e., GC5B680) and BCMA binding arms were assessed for cross-reactivity to cynomolgus monkey as part of the BGCB463 molecule, which uses the identical binding arms as BGCB491. Cross reactivity to cynomolgus monkeys was profiled for both target-binding scFv arms using FACS-based cell binding at 37° C. for 1 hour with K562 stably expressing human or cynomolgus monkey GPRC5D or BCMA. The cell-based EC₅₀ value for the GC5B680 scFv arm was approximately 30 nM against human GPRC5D-expressing cells and about 10-fold weaker (approximately 400 nM) on cynomolgus monkey GPRC5D-expressing cells.

[10] = biological target: T5, human CD3 (CD3ε of the TCR/CD3 complex) …; test: flow cytometry, human pan T cells, Donor 2, 1 h 37C; Run 5
Description: as §1, §2

Binder | EC50 [1] [µM] | Kd [2] [µM] | Kd [3] [µM] | EC50 [4] [µM] | ka buffer/ka serum [5] | EC50 [6] [µM] | EC50 [7] [µM] | EC50 [8] [µM] | EC50 [9] [µM] | EC50 [10] [µM]
BGCB491 (other, Trispecific IgG1 antibody (L234A, L235A, D265S); Heavy chain 1 = anti-CD3 (CD3B376) Fab heavy chain, hole and RF mutations, with C-terminal anti-GPRC5D scFv (GC5B680); Heavy chain 2 = anti-BCMA scFv (BCMB519) - Fc knob; also called JNJ-79635322; BCMA×GPRC5D×CD3 trispecific mAb) heavy: QVQLQQSGPRLVRPSQTLSLTCAISGDSVFNNNAAWSWIRQSPSRGLEWLGRTYYRSKWLYDYAVSVKSRITVNPDTSRNQFTLQLNSVTPEDTALYYCARGYSSSFDYWGQGTLVTVSSASTKGPSVFPLAPSSKSTSGGTAALGCLVKDYFPEPVTVSWNSGALTSGVHTFPAVLQSSGLYSLSSVVTVPSSSLGTQTYICNVNHKPSNTKVDKKVEPKSCDKTHTCPPCPAPEAAGGPSVFLFPPKPKDTLMISRTPEVTCVVVSVSHEDPEVKFNWYVDGVEVHNAKTKPREEQYNSTYRVVSVLTVLHQDWLNGKEYKCKVSNKALPAPIEKTISKAKGQPREPQVYTLPPSREEMTKNQVSLSCAVKGFYPSDIAVEWESNGQPENNYKTTPPVLDSDGSFFLVSKLTVDKSRWQQGNVFSCSVMHEALHNRFTQKSLSLSPGKGGGGSGGGGSGGGGSGGGGS[letters of about 100 residues not shown]QFPHTFGQGTKLEIKGGSEGKSSGSGSESKSTGGSQVTLKESGPVLVKPTETLTLTCTVSGFSLTNIRMSVSWIRQPPGKALEWLAHIFSNDEKSYSTSLKSRLTISRDTSKSQVVLTLTNVDPVDTATYYCARMRLPYGMDVWGQGTTVTVSS light: QSALTQPASVSGSPGQSITISCTGTSSNIGTYKFVSWYQQHPDKAPKVLLYEVSKRPSGVSSRFSGSKSGNTASLTISGLQAEDQADYHCVSYAGSGTLLFGGGTKLTVLGQPKAAPSVTLFPPSSEELQANKATLVCLISDFYPGAVTVAWKADSSPVKAGVETTTPSKQSNNKYAASSYLSLTPEQWKSHRSYSCQVTHEGSTVEKTVAPTECS EIVLTQSPGTLSLSPGERATLSCRASQSISSSFLTWYQQKPGQAPRLLIYGASSRATGIPDRFSGGGSGTDFTLTISRLEPEDFAVYYCQHYGSSPMYTFGQGTKLEIKGGSEGKSSGSGSESKSTGGS[letters of about 100 residues not shown]DEGYSSGHYYGMDVWGQGTTVTVSSEPKSSDKTHTCPPCPAPEAAGGPSVFLFPPKPKDTLMISRTPEVTCVVVSVSHEDPEVKFNWYVDGVEVHNAKTKPREEQYNSTYRVVSVLTVLHQDWLNGKEYKCKVSNKALPAPIEKTISKAKGQPREPQVYTLPPSREEMTKNQVSLWCLVKGFYPSDIAVEWESNGQPENNYKTTPPVLDSDGSFFLYSKLTVDKSRWQQGNVFSCSVMHEALHNHYTQKSLSLSPGK | 0.054 | 0.0226 | 0.00016 |  |  |  |  |  |  | 
BGCB463 (other, Trispecific IgG1 antibody (L234A, L235A, D265S); Heavy chain 1 = anti-CD3 (CD3B376) Fab heavy chain with hole and RF mutations; also called BGCB463.003; BGCB463.004) heavy: QVQLQQSGPRLVRPSQTLSLTCAISGDSVFNNNAAWSWIRQSPSRGLEWLGRTYYRSKWLYDYAVSVKSRITVNPDTSRNQFTLQLNSVTPEDTALYYCARGYSSSFDYWGQGTLVTVSSASTKGPSVFPLAPSSKSTSGGTAALGCLVKDYFPEPVTVSWNSGALTSGVHTFPAVLQSSGLYSLSSVVTVPSSSLGTQTYICNVNHKPSNTKVDKKVEPKSCDKTHTCPPCPAPEAAGGPSVFLFPPKPKDTLMISRTPEVTCVVVSVSHEDPEVKFNWYVDGVEVHNAKTKPREEQYNSTYRVVSVLTVLHQDWLNGKEYKCKVSNKALPAPIEKTISKAKGQPREPQVYTLPPSREEMTKNQVSLSCAVKGFYPSDIAVEWESNGQPENNYKTTPPVLDSDGSFFLVSKLTVDKSRWQQGNVFSCSVMHEALHNRFTQKSLSLSPGK light: QSALTQPASVSGSPGQSITISCTGTSSNIGTYKFVSWYQQHPDKAPKVLLYEVSKRPSGVSSRFSGSKSGNTASLTISGLQAEDQADYHCVSYAGSGTLLFGGGTKLTVLGQPKAAPSVTLFPPSSEELQANKATLVCLISDFYPGAVTVAWKADSSPVKAGVETTTPSKQSNNKYAASSYLSLTPEQWKSHRSYSCQVTHEGSTVEKTVAPTECS [letters of about 100 residues not shown]QFPHTFGQGTKLEIKGGSEGKSSGSGSESKSTGGSQVTLKESGPVLVKPTETLTLTCTVSGFSLTNIRMSVSWIRQPPGKALEWLAHIFSNDEKSYSTSLKSRLTISRDTSKSQVVLTLTNVDPVDTATYYCARMRLPYGMDVWGQGTTVTVSSEPKSSDKTHTCPPCPAPEAAGGPSVFLFPPKPKDTLMISRTPEVTCVVVSVSHEDPEVKFNWYVDGVEVHNAKTKPREEQYNSTYRVVSVLTVLHQDWLNGKEYKCKVSNKALPAPIEKTISKAKGQPREPQVYTLPPSREEMTKNQVSLWCLVKGFYPSDIAVEWESNGQPENNYKTTPPVLDSDGSFFLYSKLTVDKSRWQQGNVFSCSVMHEALHNHYTQKSLSLSPGKGGSEGKSSGSGSESKSTGGSEIVLTQSPGTLSLSPGERATLSCRASQSISSSFLTWYQQKPGQAPRLLIYGASSRATGIPDRFSGGGSGTDFTLTISRLEPEDFAVYYCQHYGSSPMYTFGQGTKLEIKGGSEGKSSGSGSESKSTGGS[letters of about 100 residues not shown]DEGYSSGHYYGMDVWGQGTTVTVSS |  |  |  | 0.49 | 1.6 | 0.77 | 0.11 | 0.0072 | ~0.4 | 0.132
